# The other results are listed elsewhere or left out.
# Test system: PfSIP2 AP2 domain 1 (GST-tagged)
# Test: gcPBM binding intensity (ln(normalized median fluorescence intensity)); higher = stronger DNA binding
# Summary of the method: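 Binding intensity is the highest Masliner-normalised natural-log median intensity over replicate spots in either probe orientation. To obtain it, GST-tagged P. falciparum DNA-binding domains made in E. coli were incubated for 1 h on an Agilent 4 × 180k array of primer-extended double-stranded 36-bp intergenic genomic probes plus negative controls. Detection used Alexa488 anti-GST antibody with scanning at 488 nm.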
row,Sequence,gcPBM binding intensity (ln)
1,AATTATTCTATATATTGTACATGTTTGTTTTTTTTT [XGTACX_site3130],6.93
2,ATATATAAATATATATGTACACACATATACATGTTG [XGTACX_site6653],7.16
3,TGTTTAATCACATGTTTGCACTTTCCTTTTGTAAAT [GTGCAC_site9893],8.09
4,TCTTAAAATCGGAAATGAAATAAAGTTTACAATATG [TGCATGCA_negctrl_site553],6.56
5,TGATTCTGTCATGGTGCACACCAGAACCATTATAAA [CACACA_site1965],11.9
6,TACCTATATACATACACACACATATAACCAATGTAG [CACACA_site7096],7.23
7,AGAAGATTAAAAATTGCACACAAAAATATATTTTCT [CACACA_site8359],7.04
8,TAATAAATAAAAACATGTACATATATACATATATGT [XGTACX_site485],7.1
9,GATATATAGGTATTTACACACAATGTGAGATCTATA [CACACA_site7575],6.77
10,AAAGACTTTTTATGAGCACACACATATATTATGGAG [CACACA_site8254],6.99
11,TTTCTATAATATATATGTACATATATAATATGTCGT [XGTACX_site3676],7.22
12,AGATAAAATAAATACACACACATAAATACGTACAAA [CACACA_site4739],7.39
13,TGATAATAAGCATACACACACACACTAAAAAAAAAA [CACACA_site6478],7.06
14,ATGATTATACAAAATATACACACGTGGACACAAATA [CACACA_site8304],7.18
15,ATTAAAATAGAAAAAAAAAAAAAAAAAAAAAAAAAA [CACACA_negctrl_site1117],7.1
16,GATGATACACAGGTGTTGCACTTAAATGCAGTTCTT [GTGCAC_site9627],9.71
17,TATGGGGAACTATAATGTACGTATTCCTCATATATA [XGTACX_site338],6.99
18,TTTTCAAAATGTTGTACACACAAAAAAAAAAAAAAA [CACACA_site1550],7.56
19,TTGATATACTATGACACATGCAAATAAAACATTATA [TGCATGCA_site535],7.07
20,TAATCATTTTTAAATTGTACAATTTATATAATAAGT [XGTACX_site6081],7.1
21,TAAATTTTGTTTAGCACACACACATACATACATACA [CACACA_site3155],7.82
22,TTGTATTGTATATGCACACATAGAACACTTTTTTTT [CACACA_site4133],7.19

row,Sequence,gcPBM binding intensity (ln)
1,TATTTTTTAAGTGAACATTTGTTATTATATTCTTAT [GTGCAC_negctrl_site172],6.86
2,TATATCTGTATCATTACACACATGTATACTTATTTG [CACACA_site6134],6.93
3,TTTTTTTATAAATTCACACAAAATATAATATTAAAA [CACACA_site4766],6.82
4,CTATATATTTTTCATTGTACACAAATTAAAGAAAAA [XGTACX_site8385],7.44
5,AATGTCATCATATTCATATATATTTATTTCTTTTTG [GTGCAC_negctrl_site500],6.81
6,ATATAATCCTTTCAAACACACAAAATATAATTAATA [CACACA_site1829],7.08
7,ATGATGGAATATTCTACACACAATTAATAAACAAAC [CACACA_site1045],7.32
8,GGTTATAACCCACATGCACACGTAAATAAATATTAT [CACACA_site5992],7.4
9,ATAAATAATAAGGTTACAACAAACACACAAAGGAAT [XGTACX_negctrl_site611],7.33
10,TAAAAAAAAAAGTATACACACTTCTTAATGTCAACA [CACACA_site4818],6.71
11,TGTCCAATTTATTGTGCACACCTCAAAAGTGGGTAA [CACACA_site3826],9.41
12,TATAAATAGATATATACACACATTTTTAATGATAAA [CACACA_site7299],6.6
13,AAAAAAAAAAGACACACACACAATAGTATATAAATC [CACACA_site6579],6.83
14,TTTTTATTTTTTCAAGTGCATATTTTTGGCTTCTTA,7.93
15,TATATATATATATTACGTTTTAAATATACTAATCTT [CACACA_negctrl_site32],8.98
16,CTTTTTCCTTTATATTGTACATAATTAAAGATAATA [XGTACX_site7014],7.37
17,AAAAAAAAAAAAAATACACACATATATATATATATA [CACACA_site85],9.54
18,TAAATACAGACATATACACACATATATATATATATA [CACACA_site4382],9.36
19,ATGTATATGTTTTGTTGTACAAGTATTTTATATCTT [XGTACX_site3588],7.21
20,TAAAGATGTATTTATTCACACATCTCATATAATGAA [CACACA_site5229],6.76
21,TTATGTATCCTTATAAGAAAAAAAAAAAAATTCTCT [CACACA_negctrl_site1183],6.77
22,AATAAAAATATAGGCACACATATTAAAATGAACTTA [CACACA_site830],6.78

# From the supplement of paper PMC11417369
